# Laboratory results published in the supplement of paper PMC3334620.
# The full ranking holds about 33,000 sequences; the median of “E-score (-0.5 to 0.5)” is about -0.021, and the highest 2% start at about 0.32. Some of the results follow.
# Biological target: T1, Zap1 (UniProt P47043)
# T1 sequence: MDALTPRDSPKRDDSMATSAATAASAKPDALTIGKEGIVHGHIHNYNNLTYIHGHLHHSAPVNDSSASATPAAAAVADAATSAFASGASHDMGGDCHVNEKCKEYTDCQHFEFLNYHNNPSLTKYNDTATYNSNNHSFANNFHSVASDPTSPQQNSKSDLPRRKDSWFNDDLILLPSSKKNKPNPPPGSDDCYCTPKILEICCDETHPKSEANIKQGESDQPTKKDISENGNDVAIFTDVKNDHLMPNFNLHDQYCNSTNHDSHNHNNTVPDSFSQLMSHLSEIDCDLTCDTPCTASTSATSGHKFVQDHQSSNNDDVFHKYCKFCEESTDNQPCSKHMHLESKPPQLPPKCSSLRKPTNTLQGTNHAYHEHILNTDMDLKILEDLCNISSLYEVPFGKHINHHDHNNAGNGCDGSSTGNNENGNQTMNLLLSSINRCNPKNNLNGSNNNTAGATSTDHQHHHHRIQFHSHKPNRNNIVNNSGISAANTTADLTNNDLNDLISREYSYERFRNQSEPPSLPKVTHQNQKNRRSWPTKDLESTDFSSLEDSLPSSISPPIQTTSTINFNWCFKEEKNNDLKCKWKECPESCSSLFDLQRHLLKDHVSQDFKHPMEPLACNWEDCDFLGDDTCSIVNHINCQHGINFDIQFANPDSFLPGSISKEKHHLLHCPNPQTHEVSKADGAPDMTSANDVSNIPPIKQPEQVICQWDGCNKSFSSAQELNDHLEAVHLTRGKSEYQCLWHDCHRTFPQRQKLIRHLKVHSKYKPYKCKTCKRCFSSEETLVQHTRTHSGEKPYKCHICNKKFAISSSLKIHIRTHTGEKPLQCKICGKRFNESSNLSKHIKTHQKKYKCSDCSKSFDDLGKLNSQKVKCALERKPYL
# Assay: PBM E-score (8-mer binding enrichment) (E-score (-0.5 to 0.5)); higher = stronger / more preferred TF binding; most listed sequences are background and not binding sites
# Conditions: protein concentration: 200 nM; construct: GST-full length
# Procedure, shortened: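 For each ungapped eight-base word taken together with its reverse complement, the Universal PBM Analysis Suite assigned an E-score. Binding data came from GST-tagged yeast transcription factors, applied at about 100-200 nM, on universal all-10-mer Agilent arrays made double-stranded by primer extension. Fluorescent anti-GST marked bound protein, and scans were normalised with masliner.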
row,Sequence,PBM E-score
1,AGACCTAC,0.136
2,CATCTAAG,-0.211
3,GCCTTCAC,-0.0971
4,ATAGGCAT,-0.124
5,CTGTCAAA,-0.0621
6,GTCACACA,-0.104
7,ACTACTAT,0.125
8,GATGGCGC,-0.372
9,CGTGGATC,-0.0643
10,ACGTAAGA,-0.156
11,TAATTCAA,0.176
12,GACTCGAA,-0.162
13,ATCGGGCC,-0.229
14,GCGAGTCC,-0.089
15,CTGTCGCC,-0.232
16,CGCCTGGA,-0.198
17,GAGCTCTA,-0.0486
18,CTTGAGCC,-0.111
19,AATCAACA,0.178
20,ATCAACAC,0.0908
21,CTTCATAC,0.0338
22,ACATCTAG,-0.0681
23,TCTAGACA,0.0418
24,CTGAAAGA,0.094

row,Sequence,PBM E-score
1,CCGTGCGA,0.0277
2,AGTGGAAA,-0.0686
3,AAGCAGAC,-0.281
4,CGAGACCG,0.0626
5,GGCAATAC,-0.00913
6,GCCTTCGA,-0.148
7,ACCATGGC,0.229
8,CTTATCCA,-0.0217
9,AAAAGATA,0.206
10,CCATCCCG,-0.197
11,AACCGATA,0.262
12,TATCTCAA,0.0995
13,AACTCCTG,-0.191
14,GATTTGCA,0.00632
15,AGTTAGGC,0.0637
16,AACGTCAT,-0.0998
17,AGCATCAA,0.0855
18,ACGTCCGG,-0.094
19,CACTTGTC,-0.185
20,GGGCTTTA,-0.221
21,ACGCTGAA,-0.0692
22,AAGACCGT,0.0736
23,GTCCAACA,-0.0358
24,CTTATGGC,0.0876

row,Sequence,PBM E-score
1,CTAGCCGA,-0.221
2,TAACTCCA,-0.00455
3,GCGCCTCC,-0.196
4,CTCGCTGC,-0.17
5,AGTCCCGA,-0.0918
6,ATGGGATG,-0.0788
7,ACCTAAGG,0.185
8,ATTTTCGC,-0.0813
9,CTGGCACA,-0.0803
10,CAAATGAC,-0.0285
11,AATAGCAC,-0.224
12,GCGTAGTA,-0.275
13,GTCATCAA,0.0375
14,AACTCAAC,0.16
15,GCCAGGCC,-0.291
16,ACCTCGGA,0.21
17,AAGCGAGA,-0.245
18,GCGGCACA,-0.21
19,GACCCGGC,0.122
20,CACGTTGA,-0.0377
21,GGTTCGGA,0.0221
22,GTTTAGCA,-0.0642
23,ATTTAACC,0.418
24,AGCAAACG,-0.0815

row,Sequence,PBM E-score
1,ATGAGCGA,-0.18
2,TCTACAGA,0.0576
3,AGATGCGA,-0.104
4,CTCCGGGA,-0.108
5,CCAAGAGA,0.0454
6,CATCTGCG,-0.131
7,AGTTGAAA,0.241
8,CGTTTTGA,0.135
9,CCAGTGGA,-0.0974
10,CCCTCTCC,-0.247
11,ATATGTGA,0.0706
12,CCGACAAG,-0.0531
13,CTTCACAC,-0.0233
14,AGGTTCAA,0.073
15,ATAGTAGG,-0.0305
16,CTGTGCGC,-0.127
17,GGGCGGAC,-0.135
18,TACCTAAA,0.199
19,GTTGAAAC,0.191
20,TGGCACAA,-0.054
21,ATAACTGA,0.175
22,ACATTACT,-0.0581
